In PubChem BioAssay AID894 (National Center for Advancing Translational Sciences (NCATS), 2007):
About 6,500 (4.3%) of roughly 150,000 compounds were called active. The shares of active, inactive and inconclusive entries below differ from those in the screen. Calls come from the whole dose curve; as a rule, active = well fitted inhibition curve with a large enough effect (not every such curve was filed as active); inconclusive = small, poorly fitted or top-dose-only effect, or another doubt; inactive = no such curve, though single readings can be large or run the other way. Potencies of inconclusive entries are doubtful fits and often do not repeat.

Molecular target: 15-hydroxyprostaglandin dehydrogenase [NAD(+)] (Homo sapiens) (UniProt P15428)
Assay: qHTS Assay for Inhibitors of HPGD (15-Hydroxyprostaglandin Dehydrogenase)
Details: purified HPGD, NADH fluorescence kinetic, PGE2 substrate; activity change, negative = inhibition: stronger effect = lower value
Summary of the method: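 20 nM HPGD preincubated 15 min at room temperature with compound in 50 mM Tris-HCl pH 8, 0.01% Tween 20. Started with 1 mM NAD+ and 30 uM prostaglandin E2; NADH fluorescence (360/450 nm) read 5 times over 30-s intervals, last minus first.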
% is set by controls: 0 for no effect and ±100 for the full control effect; potency is the fitted concentration of half-maximal effect; tags give direction and shape of the fitted curve.

Chain of UniProt P15428 (P15428 whole entry, looked up): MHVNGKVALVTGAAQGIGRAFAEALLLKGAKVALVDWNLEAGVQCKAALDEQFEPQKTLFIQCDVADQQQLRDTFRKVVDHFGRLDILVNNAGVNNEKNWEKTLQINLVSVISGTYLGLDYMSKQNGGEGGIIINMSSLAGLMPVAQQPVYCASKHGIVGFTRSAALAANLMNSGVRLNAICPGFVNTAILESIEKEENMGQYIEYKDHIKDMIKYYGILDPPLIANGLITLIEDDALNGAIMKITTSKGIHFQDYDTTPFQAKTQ

Potency, active:
Cc1cccc(-n2cnc3cc(C(=O)N4CCCCC4)ccc32)c1 0.0708 µM
O=C(/C=C/c1c(F)cccc1Cl)c1ccc(F)cc1 12.6 µM
O=C(O)c1ccc(N/N=C/c2ccc(OC(=O)c3ccccc3Cl)cc2)cc1 25.1 µM
Cc1ccc(C)c(CSc2nnc(-c3ccccn3)n2N)c1 15.8 µM
N#CCCN(Cc1cccnc1)C(=O)c1sc2cc(F)ccc2c1Cl 7.08 µM
CC(=O)c1cc(CN2C(=O)c3ccccc3C2=O)cs1 14.1 µM
CC(CCc1ccco1)NC(=O)CSc1cc(=O)n(C)c2ccccc12 (stereo not given) 25.1 µM
O/N=C(\c1ccc(Cl)cc1Cl)c1ncc(C(F)(F)F)cc1Cl 25.1 µM

Potency, inconclusive:
c1ccc(COc2cccc(CN3CCN(c4ccccn4)CC3)c2)cc1 35.5 µM [inhibitor, single point]
COc1cc(NC(=O)c2ccc(COc3ccccc3Br)o2)cc(OC)c1OC 25.1 µM [inhibitor, single point]
O=C1OC(c2ccccc2)=C/C1=C/N1CCCCC1 31.6 µM [inhibitor, partial curve]
COc1ccc(-c2cc3nc(C)c(CCC(=O)NCc4ccco4)c(C)n3n2)c(OC)c1 31.6 µM [inhibitor, partial curve]
CCOC(=O)COc1c(-c2ccc(OC)cc2)oc2ccccc2c1=O 10 µM [inhibitor, partial curve]
Cc1ccc(C(CCN(Cc2ccccc2)C(=O)c2ccco2)c2ccco2)cc1 (stereo not given) 39.8 µM [inhibitor, single point]
c1ccc(-c2cc3c(N4CCOCC4)ncnc3s2)cc1 22.4 µM [inhibitor, partial curve]
COC(=O)C1=C(C)NC(C)=C(C(=O)OC)C1c1cn(-c2ccccc2)nc1-c1ccco1 35.5 µM [inhibitor, single point]
O=C(Nc1ccc2nc(-c3cccs3)c(-c3cccs3)nc2c1)N1CCOCC1 28.2 µM [inhibitor, single point]
CCCCOc1ccc(-c2cnc3ccccc3n2)cc1 17.8 µM [inhibitor, partial curve]
Cc1cc2ncn(/N=C/c3ccc(-c4ccccc4)o3)c2cc1C 31.6 µM [inhibitor, partial curve]
CC(C)n1c(/C=C/c2ccccc2)nc2ccccc21 28.2 µM [inhibitor, partial curve]
O=C(O)c1ccc2cc(-c3ccc(O)c(C45CC6CC(CC(C6)C4)C5)c3)ccc2c1 28.2 µM [inhibitor, partial curve]
CC(=O)c1ccc(NS(=O)(=O)c2ccc(C)cc2)cc1 20 µM [inhibitor, partial curve]
CCCn1nc2cc(C(=O)N(CC)c3ccc(OC)cc3)ccc2c1OCC 31.6 µM [inhibitor, partial curve]
O=C(NC1CCCC1)C1CC1c1ccccc1 (stereo not given) 15.8 µM [inhibitor, partial curve]
O/N=C1/CCSc2ccccc21 20 µM [inhibitor, partial curve, poor fit]
CCOc1ccc(-c2nnc(-c3cccnc3)o2)cc1OCC 31.6 µM [inhibitor, partial curve]
COc1cc2c(cc1OC)-c1nnc(-c3cccs3)n1C1(CCCC1)C2 22.4 µM [inhibitor, partial curve]
COc1ccc(/C=N/NC(=O)c2cccc([N+](=O)[O-])c2)cc1OC(=O)c1ccccc1 5.01 µM [inhibitor, full curve, poor fit]
O=C(Nc1cccc(C(F)(F)F)c1)c1cc2c(s1)-c1ccccc1OC2 14.1 µM [inhibitor, partial curve]
Cc1ccc(S(=O)(=O)Oc2ccc(C3C4=C(CCCC4=O)N(CCC(=O)O)C4=C3C(=O)CCC4)cc2Cl)cc1 31.6 µM [inhibitor, partial curve]
COc1ccc(-c2cc(=O)oc3cc(OC(=O)C4CCCCC4)ccc23)cc1 15.8 µM [inhibitor, partial curve]
COCCn1c(N)c(C#N)c2nc3ccccc3nc21 28.2 µM [inhibitor, partial curve]
CC1(C)Cc2nc(N3CCOCC3)c(C#N)cc2CO1 31.6 µM [inhibitor, partial curve]
Cc1cc(OCc2nn[nH]n2)c2c(-c3ccccc3)cc(=O)oc2c1 25.1 µM [inhibitor, partial curve]

Activity change, negative = inhibition, inactive:
O=C(CSc1nnnn1-c1ccc(F)cc1)NC1CCCCC1 -10.1%
Cc1ccc(CCNS(=O)(=O)c2ccc(C)cc2)cc1 -6.38%
O=C(CNC(=O)c1ccc2ccccc2c1)OCC(=O)N1CCN(S(=O)(=O)c2ccc3ccccc3c2)CC1 -24.7%
O=C(NC1CCCc2ccccc21)C1CCN(C(=O)c2sccc2-n2cccc2)CC1 (stereo not given) 0.554%
CS(=O)(=O)N1CCc2cc(-c3csc(NC(=O)Cc4cccs4)n3)ccc21 -13.7%
Cc1c(NC(=S)NC(=O)C2CCCCC2)c(=O)n(-c2ccccc2)n1C -14.4%
COC(=O)C1=C(C(=O)OC)[C@@H]2Nc3ccccc3[C@@]23C[C@@H](C(=O)OC)N(S(=O)(=O)c2c(C)noc2C)C3=N1 -0.162%
CCCOc1ccc(C(C)(O)CN2CCOCC2)cc1 (stereo not given) -7.66%
CC(C)(C)CC(=O)NCCCCCCNC(=O)CC(C)(C)C -18.8%
CC(C)(C)c1nn2cnnc2n(/N=C/c2cccc3ccccc23)c1=O -6.03%
Cc1cc2nc(SCC(=O)N(C)C)c3c(c2cc1C)CCCC3 -23.6%
